Experimental data reported in patent publication US20260124226A1 (priority 2023, published 2026).

Tests used:
Coxsackie virus B3 = assay: microbe, parasite or virus in culture
[1] = mouse, in vivo
[2] = Liver microsome stability; conditions: human liver microsomes, drug 1.00 μM
[3] = C57/BL6 mice, tissues, oral 25 mg/kg vs EIDD-2749 15 mg/kg
[4] = Liver microsome stability; conditions: mouse liver microsomes, drug 1.00 μM
[5] = Liver microsome stability; conditions: rat liver microsomes, drug 1.00 μM
[6] = human (A549, HepG2); African green monkey (Vero)
Vero cells = conditions: African green monkey

O=c1ccn([C@@H]2O[C@](F)(CO)[C@@H](O)[C@H]2O)c(=O)[nH]1 [EIDD-2749, 4′-fluorouridine]
EC90 (Coxsackie virus B3; Enterovirus B, B3, Vero 76): > 380 µM | t1/2, EIDD-2991 in brain ([1]; female, ICR (CD-1), po): 10.7 h | t1/2, EIDD-2991 in heart ([1]; female, ICR (CD-1), po): 18.0 h | t1/2, EIDD-2991 in kidney ([1]; female, ICR (CD-1), po): 17.4 h | t1/2, EIDD-2991 in liver ([1]; female, ICR (CD-1), po): 17.2 h | t1/2, EIDD-2991 in lung ([1]; female, ICR (CD-1), po): 30.1 h | t1/2, EIDD-2991 in spleen ([1]; female, ICR (CD-1), po): 26.9 h | half-life [2]: 0.367 h

O=c1ccn([C@@H]2O[C@](F)(COP3(=O)OCc4ccccc4O3)[C@@H](O)[C@H]2O)c(=O)[nH]1 (stereo partly shown) [EIDD-2838]
EC50 (Coxsackie virus B3; Coxsackie virus B3, Vero 76 cells): 2.76 µM | EC50 (Coxsackie virus B3; Enterovirus B, B3, Vero 76, Coxsackie virus B3, Vero 76 cells): 4.83 µM | exposure to EIDD-2749 and EIDD-2991 compared to EIDD-2749-dosed mice [3]: decrease the exposure

CC(C)C(=O)OC[C@@]1(F)O[C@@H](n2ccc(=O)[nH]c2=O)[C@H](OC(=O)C(C)C)[C@@H]1OC(=O)C(C)C [EIDD-2954, [(2S,3S,4R,5R)-5-(2,4-dioxopyrimidin-1-yl)-2-fluoro-3,4-bis(2-methylpropanoyloxy)tetrahydrofuran-2-yl]methyl 2-methylpropanoate]
half-life [2]: <0.017 h | half-life [4]: <1 min | half-life [5]: <1 min

CC(C)OC(=O)[C@H](C)N[P@](=O)(OC[C@@]1(F)O[C@@H](n2ccc(=O)[nH]c2=O)[C@H](O)[C@@H]1O)Oc1ccccc1 [EIDD-3232, isopropyl ((S)-(((2S,3S,4R,5R)-5-(2,4-dioxo-3,4-dihydropyrimidin-1(2H)-yl)-2-fluoro-3,4-dihydroxytetrahydrofuran-2-yl)methoxy)(phenoxy)phosphoryl)-L-alaninate]
EC50 (Coxsackie virus B3; Enterovirus B, B3, Huh-7): 18 µM | intracellular concentration of EIDD-3232 [6]: 3 to 20 µM | intracellular EIDD-2991 (highest level) (Vero cells): 70 µM | intracellular EIDD-3232 level reached (Vero cells): ~60 µM | Tmax, EIDD-2991 in brain ([1]; female, ICR (CD-1), po): 4 h | Tmax, EIDD-2991 in heart ([1]; female, ICR (CD-1), po): 2 h | Tmax, EIDD-2991 in kidney ([1]; female, ICR (CD-1), po): 1 h | Tmax, EIDD-2991 in liver ([1]; female, ICR (CD-1), po): 2 h | Tmax, EIDD-2991 in lung ([1]; female, ICR (CD-1), po): 1 h | Tmax, EIDD-2991 in spleen ([1]; female, ICR (CD-1), po): 4 h | t1/2, EIDD-2991 in brain ([1]; female, ICR (CD-1), po): 9.81 h | t1/2, EIDD-2991 in heart ([1]; female, ICR (CD-1), po): 22.4 h | t1/2, EIDD-2991 in kidney ([1]; female, ICR (CD-1), po): 133 h | t1/2, EIDD-2991 in liver ([1]; female, ICR (CD-1), po): 29.0 h | t1/2, EIDD-2991 in lung ([1]; female, ICR (CD-1), po): 286 h | t1/2, EIDD-2991 in spleen ([1]; female, ICR (CD-1), po): 46.7 h | EIDD-3321 in kidney ([1]; female, ICR (CD-1), po, 10 mg/kg): ~0.02 nmol/g | 5′-triphosphate in lung, kidney, liver, and spleen [1]: high concentrations | AUC24, EIDD-2991 in brain ([1]; po): 7.06 nmol·h/g | AUC24, EIDD-2991 in heart ([1]; po): 75.6 nmol·h/g | AUC24, EIDD-2991 in kidney ([1]; po): 86.1 nmol·h/g | AUC24, EIDD-2991 in liver ([1]; po): 202 nmol·h/g | AUC24, EIDD-2991 in lung ([1]; po): 128 nmol·h/g | AUC24, EIDD-2991 in spleen ([1]; po): 190 nmol·h/g | AUCinf, EIDD-2991 in brain ([1]; po): 12.0 nmol·h/g | AUCinf, EIDD-2991 in heart ([1]; po): 137 nmol·h/g | AUCinf, EIDD-2991 in kidney ([1]; po): 611 nmol·h/g | AUCinf, EIDD-2991 in liver ([1]; po): 457 nmol·h/g | AUCinf, EIDD-2991 in lung ([1]; po): 2400 nmol·h/g | AUCinf, EIDD-2991 in spleen ([1]; po): 593 nmol·h/g | Cmax, EIDD-2991 in brain ([1]; po): 0.356 nmol/g | Cmax, EIDD-2991 in heart ([1]; po): 6.22 nmol/g | Cmax, EIDD-2991 in kidney ([1]; po): 6.67 nmol/g | Cmax, EIDD-2991 in liver ([1]; po): 16.3 nmol/g | Cmax, EIDD-2991 in lung ([1]; po): 6.37 nmol/g | Cmax, EIDD-2991 in spleen ([1]; po): 13.0 nmol/g | EIDD-3232 in tissues ([1]; po, 10 mg/kg): not detected | EIDD-3321 in all other tissues ([1]; po, 10 mg/kg): BQL
